At least one peptide structure holds a part that was inferred or is arguable (an end, a ring closure or a residue).
Assay: Body weight of DIO mice, 25 days, different administration ratios (Example 11)
Type: in vivo
Settings: 30 nmol/kg s.c. QD, Day 25
Text: […] high-fat diet-induced obese (DIO) mice were weighed. When the average weight of the mice is about 40-45 g, they are randomly assigned to Groups G2-G11 based on the body weight of the mice, with 8 mice in each group. Eight C57BL/6 mice fed with normal diet were assigned to Group G1. Each mouse in all groups was housed in a separate cage for 2-3 days to adapt to environment before grouping. During this period, the mice were adaptively caught and administrated with blank solvent daily. The day of grouping was Day 0. The Vehicle group was administrated with blank solvent (propylene glycol: 14.0 mg/mL and disodium hydrogen phosphate: 1.132 mg/mL) at pH 7.4; s.c. means subcutaneous injection; the frequency of administration QD means once a day. Such expressions may be applied to the following Examples.
The animals were weighed before grouping (i.e. before the first administration) and every 3 days after grouping. At the end of the experiment (Day 25), the mice were fasted for 4 hours. The livers of all mice in Groups G1-G8 were collected and weighed. About 20 mg of the livers were homogenized. The homogenate was taken to measure total cholesterol (TC) and […] (TG).

In the case of `CC[C@H](C)[C@H](NC(=O)[C@H](CC(C)C)NC(=O)[C@H](Cc1c[nH]c2ccccc12)NC(=O)[C@H](CCC(N)=O)NC(=O)[C@@H](NC(=O)[C@H](Cc1ccccc1)NC(=O)[C@H](C)NC(=O)[C@H](CCCCNC(=O)COCCOCCNC(=O)COCCOCCNC(=O)CC[C@H](NC(=O)CCCCCCCCCCCCCCCCCCC(=O)O)C(=O)O)NC(=O)[C@H](CCC(N)=O)NC(=O)[C@H](C)NC(=O)[C@@H](NC(=O)[C@H](CCCCN)NC(=O)[C@H](CC(=O)O)NC(=O)[C@H](CC(C)C)NC(=O)C(C)(C)NC(=O)[C@@H](NC(=O)[C@H](CO)NC(=O)[C@H](Cc1ccc(O)cc1)NC(=O)[C@H](CC(=O)O)NC(=O)[C@H](CO)NC(=O)[C@@H](NC(=O)[C@H](Cc1ccccc1)NC(=O)[C@@H](NC(=O)CNC(=O)[C@H](CCC(=O)O)NC(=O)C(C)(C)NC(=O)[C@@H](N)Cc1ccc(O)cc1)[C@@H](C)O)[C@@H](C)O)[C@@H](C)CC)[C@@H](C)CC)C(C)C)C(=O)N[C@@H](C)C(=O)NCC(=O)NCC(=O)N1CCC[C@H]1C(=O)N[C@@H](CO)C(=O)N[C@@H](CO)C(=O)NCC(=O)N[C@@H](C)C(=O)N1CCC[C@H]1C(=O)N1CCC[C@H]1C(=O)N1CCC[C@H]1C(=O)N[C@@H](CO)C(N)=O` [Tirzepatide], the “Body Weight” value is reported as 29.7 ± 1.2 *** * g.
